According to the antibiotic and cytotoxicity screens of Wong et al. (2023):
The other results are listed elsewhere or left out.

Assays:
HSkMC = human skeletal muscle cells; assay: cytotoxicity call (relative viability < 0.9); conditions: 10 µM
HepG2 = assay: cytotoxicity call (relative viability < 0.9); conditions: 10 µM
S. aureus RN4220 = assay: growth inhibition call (relative growth <= 0.2); conditions: 50 µM

C[C@H]1CN([C@@H](C)CO)C(=O)c2c(c3ccccc3n2C)-c2ccccc2CO[C@H]1CN(C)Cc1ccc2c(c1)OCO2
inactive: cytotoxicity call (HSkMC) | cytotoxicity call (HepG2) | growth inhibition call (S. aureus RN4220)

Cc1noc(C)c1S(=O)(=O)Nc1ccc2c(c1)CC(=O)N([C@H](C)CO)C[C@@H](C)[C@@H](CN(C)Cc1ccc(C(=O)O)cc1)O2
inactive: cytotoxicity call (HSkMC) | cytotoxicity call (HepG2) | growth inhibition call (S. aureus RN4220)

C[C@@H]1CCCCO[C@@H](CN(C)C(=O)C2CCCCC2)[C@@H](C)CN([C@@H](C)CO)C(=O)c2cc(NC(=O)c3ccncc3)ccc2O1
inactive: cytotoxicity call (HSkMC) | cytotoxicity call (HepG2) | growth inhibition call (S. aureus RN4220)

COc1ccccc1C#Cc1cnc2c(c1)C(=O)N([C@H](C)CO)C[C@@H](C)[C@H](CN(C)C(=O)c1ccc3c(c1)OCO3)O2
inactive: cytotoxicity call (HSkMC) | cytotoxicity call (HepG2) | growth inhibition call (S. aureus RN4220)

C[C@H](CO)N1C[C@H](C)[C@@H](CN(C)C(=O)Nc2ccc(C(F)(F)F)cc2)OCc2cn(nn2)CCCC1=O
inactive: cytotoxicity call (HSkMC) | cytotoxicity call (HepG2) | growth inhibition call (S. aureus RN4220)

C[C@H]1CN([C@@H](C)CO)C(=O)c2cccc(NS(=O)(=O)c3ccccc3)c2O[C@@H]1CN(C)S(=O)(=O)c1ccccc1
inactive: cytotoxicity call (HSkMC) | cytotoxicity call (HepG2) | growth inhibition call (S. aureus RN4220)

COc1ccc(CN(C)C[C@H]2Oc3ccc(NC(=O)Nc4cccc5ccccc45)cc3C(=O)N([C@H](C)CO)C[C@@H]2C)cc1
inactive: cytotoxicity call (HSkMC) | cytotoxicity call (HepG2) | growth inhibition call (S. aureus RN4220)

C[C@@H]1CN([C@@H](C)CO)C(=O)c2c(c3ccccc3n2C)-c2ccccc2CO[C@@H]1CN(C)C(=O)NC1CCCCC1
inactive: cytotoxicity call (HSkMC) | cytotoxicity call (HepG2) | growth inhibition call (S. aureus RN4220)

C[C@H](O)C#Cc1cnc2c(c1)C(=O)N([C@@H](C)CO)C[C@H](C)[C@H](CN(C)Cc1cncnc1)O2
inactive: cytotoxicity call (HSkMC) | cytotoxicity call (HepG2) | growth inhibition call (S. aureus RN4220)
